Data published in the supplement of paper PMC8728848.
The list shows a part of the results.

Experiments:
Test in all cases: glycan array binding signal (z-score within array); higher = stronger binding
Settings in all cases: glycan notation: IUPAC condensed, linker removed
[1] = target: Gal3S(b1-4)Glc
Outline: (§1)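 Negative Z-scores can be read as non-binding. The Z-score is calculated within each array and then averaged across arrays of one protein sequence at different concentrations or buffers and across linkers. Arrays, 3228 in all, were curated from the Consortium for Functional Glycomics database and kept only where the protein sequence was available.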

[2] = target: Gal3S(b1-4)Glc6S
Outline: as §1

[3] = target: Gal3S(b1-4)GlcNAc
Outline: as §1

[4] = target: Gal3S(b1-4)[Fuc(a1-3)]Glc6S
Outline: as §1

[5] = target: Gal3S(b1-4)[Fuc(a1-3)]GlcNAc
Outline: as §1

[6] = target: Gal3S(b1-4)[Fuc(a1-3)]GlcNAc6S
Outline: as §1

[7] = target: Gal3S4S(b1-4)GlcNAc
Outline: as §1

[8] = target: Gal3S6S(b1-4)GlcNAc
Outline: as §1

[9] = target: Gal3S6S(b1-4)GlcNAc6S
Outline: as §1

[10] = target: Gal4S(b1-4)GlcNAc
Outline: as §1

[11] = target: Gal4S6S(b1-4)GlcNAc
Outline: as §1

[12] = target: Gal6P(b1-4)GlcNAc
Outline: as §1

[13] = target: Gal6S(b1-3)GlcNAc
Outline: as §1

[14] = target: Gal6S(b1-3)GlcNAc6S
Outline: as §1

[15] = target: Gal6S(b1-4)Glc
Outline: as §1

[16] = target: Gal6S(b1-4)Glc6S
Outline: as §1

[17] = target: Gal6S(b1-4)GlcNAc
Outline: as §1

[18] = target: Gal6S(b1-4)GlcNAc6S
Outline: as §1

[19] = target: GalNAc(a1-3)Gal
Outline: as §1

[20] = target: GalNAc(a1-3)GalNAc
Outline: as §1

[21] = target: GalNAc(a1-3)GalNAc(b1-3)Gal(a1-4)Gal(b1-4)Glc
Outline: as §1

[22] = target: GalNAc(a1-3)GalNAc(b1-3)Gal(a1-4)Gal(b1-4)GlcNAc
Outline: as §1

[23] = target: GalNAc(b1-3)Gal
Outline: as §1

[24] = target: GalNAc(b1-3)Gal(a1-4)Gal(b1-4)GlcNAc
Outline: as §1

[25] = target: GalNAc(b1-3)Gal(a1-4)Gal(b1-4)GlcNAc(b1-3)Gal(b1-4)Glc
Outline: as §1

[26] = target: GalNAc(b1-3)Gal(a1-6)Gal(b1-4)Glc
Outline: as §1

[27] = target: GalNAc(b1-3)GalNAc
Outline: as §1

[28] = target: GalNAc(b1-3)GlcNAc
Outline: as §1

[29] = target: GalNAc(b1-4)Gal(b1-4)Glc
Outline: as §1

[30] = target: GalNAc(b1-4)GlcNAc
Outline: as §1

B1: BT3172pd (Bacteroides thetaiotaomicron) (protein)
chain: MLPLRAEHYYYKQISLKEGLPSNVRCILRDEQGFIWIGTKAGLGKFDGHQLKRYKHQANDPHSLLHNLIYQIAEDKQHNIWILTEKGIARYQQQSNNFTFPTDEEGNYITAYSFCLVPDGILFGGKDRIYKYSYKDSSLRLLQYFNANSFKITALSVWDSKTLLCCSRWTGLYLVDLQTGEHRRPPFDCGPEITSMITDSKNRIWIAPYSGGLRCYSRDGKLSASYTTHNSSLSNDIVLSLAEREEQLWIGTDGGGINILHPETGEISQLEYIPGRENYSLPANSILCLHNDYNNNVWAGSTCNGLISIREVSMKTYTDVVPGNDRGLSNGTVRSLYRQSPDSIWIGTDGGGINLFSPHTEKFTHYSSTWGDKVAFISGFTPGKLLISLFSKGVFVFNPATGEKQPFTIIDKETTTRLCNRGKSVNLYQNTPNTVLFLGDHIYQYHLKEKKFSTITEEEGKDIVGTLVPFDHQENLTYINDIKHIYELDDQTSRLKTVFECYTDTVISSVSHDEQGHFWIGSNFGLIHYDPVLKSRTLVPTNLFTEINMVLCDQKGKVWIGVDNMLFAYFIKEQKFVLFGESNGAIQNEYLPNARLVNEQGDAYIGGVKGMLRIDGQLLLNTSEMPELQLLDITINGESANHEWYNHPAKISVPWNSNISIRIMSREEDIFRQKIYRYQIEGLNNEYTESYNPELVIRSLLPGSYRIMASCTAKDGSWIPDQQVLELTVLPPWYRTHHHHHH
Question: How did the “glycan array binding signal (z-score)” value [1] turn out when B1 was run?
Answer: 0.074

Question: And the “glycan array binding signal (z-score)” value [2]?
Answer: 0.289

Question: What about the “glycan array binding signal (z-score)” value [3] of the same binder?
Answer: 0.279

Question: And the “glycan array binding signal (z-score)” value [4]?
Answer: 0.491

Question: What about the “glycan array binding signal (z-score)” value [5] of the same binder?
Answer: -0.579

Question: And the “glycan array binding signal (z-score)” value [6]?
Answer: -0.416

Question: And the “glycan array binding signal (z-score)” value [7]?
Answer: -0.106

Question: What about the “glycan array binding signal (z-score)” value [8] of the same binder?
Answer: -0.222

Question: What about the “glycan array binding signal (z-score)” value [9] of the same binder?
Answer: -0.116

Question: And the “glycan array binding signal (z-score)” value [10]?
Answer: -0.416

Question: What about the “glycan array binding signal (z-score)” value [11] of the same binder?
Answer: 0.622

Question: And the “glycan array binding signal (z-score)” value [12]?
Answer: -0.544

Question: What about the “glycan array binding signal (z-score)” value [13] of the same binder?
Answer: 0.038

Question: What about the “glycan array binding signal (z-score)” value [14] of the same binder?
Answer: -0.785

Question: And the “glycan array binding signal (z-score)” value [15]?
Answer: 0.122

Question: And the “glycan array binding signal (z-score)” value [16]?
Answer: -0.107

Question: And the “glycan array binding signal (z-score)” value [17]?
Answer: -0.52

Question: What about the “glycan array binding signal (z-score)” value [18] of the same binder?
Answer: -0.124

Question: And the “glycan array binding signal (z-score)” value [19]?
Answer: -0.191

Question: And the “glycan array binding signal (z-score)” value [20]?
Answer: -0.288

Question: And the “glycan array binding signal (z-score)” value [21]?
Answer: -0.399

Question: What about the “glycan array binding signal (z-score)” value [22] of the same binder?
Answer: 0.046

Question: What about the “glycan array binding signal (z-score)” value [23] of the same binder?
Answer: 0

Question: And the “glycan array binding signal (z-score)” value [24]?
Answer: -0.496

Question: What about the “glycan array binding signal (z-score)” value [25] of the same binder?
Answer: -0.247

Question: And the “glycan array binding signal (z-score)” value [26]?
Answer: 0.074

Question: What about the “glycan array binding signal (z-score)” value [27] of the same binder?
Answer: -0.363

Question: What about the “glycan array binding signal (z-score)” value [28] of the same binder?
Answer: -0.246

Question: What about the “glycan array binding signal (z-score)” value [29] of the same binder?
Answer: 0.978

Question: And the “glycan array binding signal (z-score)” value [30]?
Answer: 0.227
